Consider 9 cell lines from the supplement of paper PMC4967469.

A lower IC50 marks a more sensitive line; a limit (>, <) means that the fit lies beyond the doses tested. AUC is the area under the same curve over the 256-fold range up to the top dose, as a fraction; it is 1 without any effect and falls as sensitivity rises. For part of these data: An inferred top dose was calculated from the reported fits.

What all share (test): Viability of human cancer cell lines after 72 h of drug (GDSC screen)
Compound in test [1]: Nc1ccccc1NC(=O)c1ccc(CNC(=O)OCc2cccnc2)cc1 [MS-275]
The settings on record: top dose 5 µM; top dose inferred. The procedure:
(§1)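 Human cancer cell lines in 384-well plates, medium with 10% serum, drug for 72 h over a 256-fold dose range (nine 2-fold or five 4-fold steps up to the top dose). Adherent lines were fixed and stained with the nucleic acid dye Syto60, suspension lines read with resazurin; signal relative to control wells, capped at 0 and 100%. One two-parameter sigmoid per drug and line, fitted in a mixed model over all curves with the slope shared within a line.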

Compound in test [2]: COc1cc2nccc(Oc3ccc(NC(=O)Nc4cc(C)on4)c(Cl)c3)c2cc1OC [AV-951]
Conditions: top dose 0.128 µM; top dose inferred. As to the method: as §1

Compound in test [3]: CCN1CCN(Cc2ccc(NC(=O)c3ccc(C)c(/C=C/c4cnc5[nH]ccc5c4OC)c3)cc2C(F)(F)F)CC1 [HG-6-64-1]
Conditions: top dose 5.12 µM; top dose inferred. As to the method: as §1

Compound in test [4]: CCc1cncnc1N1CCN(Cc2nc3ccc(C(F)(F)F)cc3[nH]2)CC1 [PF-4708671]
Conditions: top dose 10 µM; top dose inferred. The procedure:
as §1

Compound in test [5]: CC(=O)Nc1cccc(-n2c(=O)n(C3CC3)c(=O)c3c(Nc4ccc(I)cc4F)n(C)c(=O)c(C)c32)c1 [Trametinib]
Conditions: top dose 1 µM. As to the method:
as §1

Compound in test [6]: CCNC(=O)C[C@@H]1N=C(c2ccc(Cl)cc2)c2cc(OC)ccc2-n2c(C)nnc21 [I-BET-762]
Conditions: top dose 20 µM; top dose inferred. The procedure: as §1

Compound in test [7]: O=C(NC(COc1ccc2[nH]c(=O)[nH]c2c1)c1ccccc1)c1cccn(Cc2ccc(F)c(F)c2)c1=O [KIN001-244]
Conditions: top dose 20 µM; top dose inferred. As to the method:
as §1

On to ROS-50 (B-cell leukaemia, suspension), for which the AUC in test [1] was 0.766; in test [2], 0.981; in test [3], 0.843; in test [4], 0.887; in test [5], 0.982; in test [6], 0.614. The AUC in test [7] was 0.899. In addition, the IC50 was 2350 nM in test [1]; more than 128 nM in test [2]; more than 5120 nM in test [3]; more than 10 µM in test [4]; more than 1000 nM in test [5]; 2810 nM in test [6]. Further, the IC50 in test [7] is more than 20 µM.
For the cell line “RPMI-6666 (Hodgkin lymphoma, suspension)”, the AUC in test [1] turned out to be 0.529; in test [2], 0.919; in test [3] it was 0.534; in test [4] it was 0.924; in test [5], 0.91; in test [6] it was 0.583. In test [7], the AUC came out at 0.752. Further, the IC50 was 381 nM in test [1]; more than 128 nM in test [2]; 404 nM in test [3]; more than 10 µM in test [4]; more than 1000 nM in test [5]; 2210 nM in test [6]. In addition, the IC50 in test [7] was 7.83 µM.
As to “RPMI-8866 (chronic myeloid leukaemia, suspension)”, the AUC in test [1] was found to be 0.775; in test [2], 0.986; in test [3] it was 0.951; in test [4], 0.965; in test [5], 0.83; in test [6], 0.49. Moreover, in test [7], the AUC is 0.835. In addition, the IC50 in test [1] was 1830 nM; in test [2], more than 128 nM; in test [3], more than 5120 nM; in test [4] it was more than 10 µM; in test [5] it was 568 nM; in test [6], 1170 nM. Also, the IC50 in test [7] worked out at 11.9 µM.
For the cell line RS4-11 (leukaemia, suspension), the AUC in test [1] was found to be 0.959; in test [2] it was 0.979; in test [3] it was 0.769; in test [4], 0.973; in test [5], 0.981; in test [6], 0.501. For the same cell line, the AUC in test [7] was 0.642. The IC50 was more than 5000 nM in test [1]; more than 128 nM in test [2]; 1770 nM in test [3]; more than 10 µM in test [4]; more than 1000 nM in test [5]; 1260 nM in test [6]. Also, the 50% inhibitory concentration (IC50) in test [7] was 2.98 µM.
In the case of RXF393 (kidney, adherent), the AUC was found to be 0.924 in test [1]; 0.975 in test [2]; 0.457 in test [3]; 0.946 in test [4]; 0.396 in test [5]; 0.976 in test [6]. Besides, the AUC in test [7] is 0.817. In addition, the IC50 in test [1] is more than 5000 nM; in test [2], more than 128 nM; in test [3] it was 233 nM; in test [4] it was more than 10 µM; in test [5], 29 nM; in test [6], more than 20000 nM. The IC50 in test [7] was found to be 17.3 µM.
With “Ramos-2G6-4C10 (Burkitt lymphoma, suspension)”, the AUC in test [1] was 0.546; in test [2] it was 0.985; in test [3] it was 0.734; in test [4], 0.966; in test [5], 0.949; in test [6] it was 0.763. Further, the AUC in test [7] was 0.705. For the same cell line, the IC50 in test [1] was 409 nM; in test [2] it was more than 128 nM; in test [3], 1320 nM; in test [4] it was more than 10 µM; in test [5], more than 1000 nM; in test [6] it was 6240 nM. In test [7], the IC50 turned out to be 4.28 µM.
“SBC-1 (small cell lung carcinoma, suspension)”: the AUC in test [1] was 0.716; in test [2], 0.988; in test [3] it was 0.988; in test [4], 0.984; in test [5], 0.985; in test [6] it was 0.83. In addition, the AUC in test [7] stood at 0.956. Further, the IC50 in test [1] was 1240 nM; in test [2] it was more than 128 nM; in test [3], more than 5120 nM; in test [4], more than 10 µM; in test [5], more than 1000 nM; in test [6], 11900 nM. Besides, in test [7], the IC50 is more than 20 µM.
As for SCH (stomach, adherent), the AUC in test [1] was found to be 0.865; in test [2], 0.988; in test [3] it was 0.986; in test [4], 0.971; in test [5], 0.987; in test [6] it was 0.988. Moreover, the AUC in test [7] was 0.978. Also, the IC50 in test [1] was 4980 nM; in test [2] it was more than 128 nM; in test [3], more than 5120 nM; in test [4], more than 10 µM; in test [5], more than 1000 nM; in test [6], more than 20000 nM. Also, the IC50 in test [7] was more than 20 µM.
With SF126 (glioma, adherent), the AUC worked out at 0.81 in test [1]; 0.978 in test [2]; 0.587 in test [3]; 0.983 in test [4]; 0.888 in test [5]; 0.952 in test [6]. For the same cell line, the AUC in test [7] is 0.872. Further, the IC50 in test [1] is 2820 nM; in test [2], more than 128 nM; in test [3] it was 563 nM; in test [4] it was more than 10 µM; in test [5] it was more than 1000 nM; in test [6], more than 20000 nM. Besides, the IC50 in test [7] is more than 20 µM.

Broadly, the IC50 is the midpoint of a concentration-inhibition curve.
